Source: the supplement of paper PMC3334620
Over roughly 33,000 sequences, “E-score (-0.5 to 0.5)” has its median near -0.016; the highest 2% begin near 0.32. The list shows a part of the results.

Target: T1, Stp1 (UniProt B3LFK1)
T1 sequence: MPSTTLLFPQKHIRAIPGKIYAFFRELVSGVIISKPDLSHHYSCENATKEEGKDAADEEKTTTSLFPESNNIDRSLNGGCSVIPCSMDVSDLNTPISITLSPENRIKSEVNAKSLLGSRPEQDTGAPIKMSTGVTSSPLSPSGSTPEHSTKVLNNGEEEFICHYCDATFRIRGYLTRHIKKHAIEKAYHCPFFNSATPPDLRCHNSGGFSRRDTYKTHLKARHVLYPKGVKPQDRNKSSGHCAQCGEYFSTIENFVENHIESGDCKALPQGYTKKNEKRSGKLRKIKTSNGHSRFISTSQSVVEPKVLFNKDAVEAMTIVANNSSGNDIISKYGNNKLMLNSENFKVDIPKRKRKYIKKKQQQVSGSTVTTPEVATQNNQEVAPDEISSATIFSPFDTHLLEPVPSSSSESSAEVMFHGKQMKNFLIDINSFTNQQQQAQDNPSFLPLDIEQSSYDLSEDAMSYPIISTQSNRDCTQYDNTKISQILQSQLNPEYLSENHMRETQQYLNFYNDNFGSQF
Experiment: PBM E-score (8-mer binding enrichment) (E-score (-0.5 to 0.5)); higher = stronger / more preferred TF binding; most listed sequences are background and not binding sites
Settings: protein concentration: 200 nM; construct: GST-full length
Method in brief: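 Masliner-normalised scans of fluorescent anti-GST signal were the basis for scoring. That signal came from GST-tagged yeast transcription factors applied at about 100-200 nM to double-stranded universal all-10-mer Agilent arrays on fresh or once-stripped slides. Each ungapped eight-base word, pooled with its reverse complement, received an E-score from the Universal PBM Analysis Suite.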

Sequence | PBM E-score
CAGTAGGG | -0.134
ACAGTAGA | 0.122
ATCCTAGA | -0.0917
AGGGTACG | -0.0774
CAGGCTTC | -0.0621
CAGTACAG | -0.0899
GCCCAACA | -0.0273
AATCCCCT | -0.393
AATTAGTC | 0.0464
AGCTGATG | -0.0323
CCGGACTC | -0.133
CAGTGCGA | -0.0864
CCGAAGCC | 0.0514
AATCACAA | -0.0429
AGTCCGAT | -0.182
GTCTCAAC | 0.00452
AAGGGCAT | 0.0351
AGCGGTAC | 0.004
AAAGGATA | 0.206
ATTGAGAG | 0.143
ACTGGTCA | -0.105
GATTATAA | 0.174
GCCGGTCC | -0.0741
GCAGAGAA | -0.0358
CGCGAGCC | 0.1

Sequence | PBM E-score
CCGGGGAA | -0.0354
AATGGAAA | 0.121
CGGCTCAC | 0.213
GTTTACCA | 0.121
ATCGATAG | 0.106
CATCTTAG | 0.0964
GCAGACCA | -0.141
ATCTCGGG | -0.143
GCACTTTA | 0.077
ACGCGACA | 0.162
AAGCAGAG | -0.0857
ACTCCTGC | 0.0407
ACGAGGAA | 0.0732
GCGTGGTA | -0.0304
ACGCGACT | -0.171
ATCACCTC | -0.0852
GTAGGGGA | -0.264
ATGCCAAT | 0.207
AGCGTCCC | -0.218
GAATAAAC | 0.139
AATTTATA | 0.224
CATGAAGG | 0.0782
ACTAGCTC | 0.00118
CCGTCTCA | 0.167
GCGCGTCA | 0.119

Sequence | PBM E-score
ATTGGAGG | -0.0956
CATTCGGG | -0.118
AGCAAGTG | -0.0954
CAATACGG | 0.32
CCGTCGCA | 0.138
AAGGCCTT | -0.102
ATGGTTAA | 0.136
CTTGTTAC | -0.0189
CGACTACC | -0.22
ATGCGACC | 0.0512
GCATCCAA | -0.11
GGGCGTCA | -0.037
GCCGCCAA | -0.0138
GATTTCAC | 0.0443
CCCTCACC | -0.419
CGCAAATA | 0.164
AGTCGAAC | -0.146
GAACATGC | -0.0783
ATCAGCAC | 0.0411
AATTCAAT | 0.168
CAATCGCC | 0.246
AGCGATCG | -0.0207
ACGAAATC | 0.122
AACCGGAA | -0.097
CCGACGCA | -0.198

Sequence | PBM E-score
ACGCCCTG | 0.288
CATGCGCA | -0.0214
GCGCGGCC | 0.4
AATGGGCT | -0.226
TGGGGTAA | 0.05
AGCGCTGC | -0.0136
ATAACATG | -0.00579
CAACACAA | 0.1
ACCCAATA | -0.104
ACGCAGGA | -0.166
ATACATAT | 0.303
AATGTAAG | 0.137
GATAATAC | 0.0667
GCTTTAAA | 0.0475
AAGAGGGG | -0.057
CCGCGTCG | 0.355
CGAATGCA | 0.0903
AACAGGGA | 0.0073
AGGCCAAG | -0.35
CATGTGTA | 0.153
AGGAGCAC | -0.117
ACATCTTG | -0.119
AGATATTC | -0.154
AATAAACG | 0.18
CAGAGTGC | -0.0833

Sequence | PBM E-score
AGCCTCTA | -0.127
CCCACCCC | -0.037
GGCTCGTA | 0.0726
ATTATACG | 0.294
ATGGACCC | -0.193
AACCCTAC | -0.186
GGCATGCA | 0.134
GTTTACAA | 0.109
CTCATTAC | 0.148
TCCGCCAA | -0.136
ACTTGCTG | 0.0559
ACGGCCTC | 0.263
GGTCACAC | -0.18
ACGACTTA | -0.179
GACTGCAC | -0.233
CTGAAGAC | -0.0623
CCGAGTAA | 0.0365
CTACCCTA | -0.166
TACTACGA | 0.104
TAACCCGA | -0.19
CCAGACAA | -0.0888
TAGGGTGA | -0.293
TCCTCTAA | -0.222
CGTCTCCA | 0.224
ATCGGGAC | -0.198

Sequence | PBM E-score
ACAAATAC | 0.274
CAGCACCG | -0.117
AAGGGATC | -0.178
ATCCCGTA | 0.0591
CGGAGATA | 0.0846
AGGAGCTA | -0.126
AGTCCAGA | -0.175
ACTAGTCG | -0.187
CCCCTTAG | -0.278
ACTCTAAG | -0.221
CGATTGCA | 0.103
CATCGAAG | 0.157
AATTCTGG | -0.134
ATTCGTGC | 0.31
CTGTCCTA | -0.199
AACAACCC | -0.0849
GATTCGTA | 0.0649
TCTCCAAA | 0.0398
ACTCATTC | 0.0223
GTATATTA | 0.159
AGGTCTAC | -0.258
CGCTATCC | 0.0404
AAGTGCTG | -0.0243
AAAGGCTT | -0.0867
GATTCTTA | 0.154

Sequence | PBM E-score
AATGTTGA | -0.154
TGATAGAA | -0.198
AGGAGTAA | 0.0799
CTTCCACC | -0.2
CCGGTACG | -0.209
GAGCTTAA | -0.234
CGAATAGA | -0.095
CCTTGGCG | -0.174
ACCAGTTC | -0.0513
CATAAGCG | 0.00279
ACTTATTA | 0.00052
GCACTCGA | -0.0637
CGTGTGAC | 0.05
GCCATCCA | -0.0691
GTCCGTAA | -0.0628
ATCTAGTA | 0.151
CCGGAGAA | -0.213
ATGCTATG | -0.0201
GCTGTTCC | -0.221
ATCAGGGA | -0.201
AAGTTGGC | -0.0139
AAAGTGAG | 0.012
